# In a collection of fitness landscapes (doi:10.1126/science.1257360):
# Some of the results follow.
# B1: PhoQ; a variant is named by its letters at X, in order, P23837 (parent)
# chain: MKKLLRLFFPLSLRVRFLLATAAVVLVLSLAYGMVALIGYSVSFDKTTFRLLRGESNLFYTLAKWENNKLHVELPENIDKQSPTMTLIYDENGQLLWAQRDVPWLMKMIQPDWLKSNGFHEIEADVNDTSLLLSGDHSIQQQLQEVREDDDDAEMTHSVAVNVYPATSRMPKLTIVVVDTIPVELKSSYMVWSWFIYVLSANLLLVIPLLWVAAWWSLRPIEALAKEVRELEEHNRELLNPATTRELTSLVRNLNRLLKSERERYDKYRTTLTDLTHSLKTPLXXLQXXLRSLRSEKMSVSDAEPVMLEQISRISQQIGYYLHRASMRGGTLLSRELHPVAPLLDNLTSALNKVYQRKGVNISLDISPEISFVGEQNDFVEVMGNVLDNACKYCLEFVEISARQTDEHLYIVVEDDGPGIPLSKREVIFDRGQRVDTLRPGQGVGLAVAREITEQYEGKIVAGESMLGGARMEVIFGRQHSAPKDE
# Variants of: B1
# Assay: enrichment ratio after two sorts for PhoP signalling (ratio (wild type AVST 3.29)); higher = more functional
# Details: with PhoP (E. coli)
row,Variant,enrichment ratio
1,PCKW,≤ 0.25
2,LHEL,≤ 0.25
3,PSTP,≤ 0.25
4,MWAT,≤ 0.25
5,LFRI,≤ 0.25
6,FNRY,≤ 0.25
7,PPVQ,≤ 0.25
8,GGCL,8.88
9,TCSW,1.85
10,IITT,≤ 0.25
11,TMYM,≤ 0.25
12,MWCW,≤ 0.25
13,ESNS,≤ 0.25
14,YPAV,≤ 0.25
15,VQYE,≤ 0.25
16,ITCQ,≤ 0.25
17,KGGS,≤ 0.25
18,PTIC,≤ 0.25
19,WSKK,≤ 0.25
20,NGSI,≤ 0.25
21,QLHK,≤ 0.25
22,FEYT,≤ 0.25
23,WNHC,≤ 0.25
24,NKYG,≤ 0.25
25,PITI,≤ 0.25

row,Variant,enrichment ratio
1,HEAI,≤ 0.25
2,MFAA,≤ 0.25
3,IEWL,≤ 0.25
4,TKRF,≤ 0.25
5,AIVI,13
6,HRMA,≤ 0.25
7,HFPP,≤ 0.25
8,CILG,≤ 0.25
9,LVLD,≤ 0.25
10,RTTP,≤ 0.25
11,RKYK,≤ 0.25
12,IRNW,≤ 0.25
13,QIKF,≤ 0.25
14,NQIW,≤ 0.25
15,LVIK,0.67
16,YWNF,≤ 0.25
17,HTLP,≤ 0.25
18,FYYC,≤ 0.25
19,WVRF,≤ 0.25
20,TTHT,1.22
21,FCRF,≤ 0.25
22,FIPP,≤ 0.25
23,YHLI,≤ 0.25
24,PTIL,≤ 0.25
25,DSLC,≤ 0.25

row,Variant,enrichment ratio
1,PWSN,≤ 0.25
2,NPRL,≤ 0.25
3,TVRG,≤ 0.25
4,LAII,≤ 0.25
5,FPPM,≤ 0.25
6,PDDS,≤ 0.25
7,ERQK,≤ 0.25
8,GTKS,≤ 0.25
9,FGEH,≤ 0.25
10,RNIF,≤ 0.25
11,LARQ,≤ 0.25
12,IPEP,≤ 0.25
13,VFPQ,≤ 0.25
14,HCAI,≤ 0.25
15,IMRQ,≤ 0.25
16,FFSC,≤ 0.25
17,YLRI,≤ 0.25
18,KARC,≤ 0.25
19,RTAQ,≤ 0.25
20,DIYD,≤ 0.25
21,AVRA,≤ 0.25
22,AIIR,1.02
23,DVRD,≤ 0.25
24,ACKL,≤ 0.25
25,APWH,≤ 0.25

row,Variant,enrichment ratio
1,RFQL,≤ 0.25
2,MHWR,≤ 0.25
3,RIIL,≤ 0.25
4,VTEY,≤ 0.25
5,PQMT,≤ 0.25
6,DENF,≤ 0.25
7,AHST,≤ 0.25
8,TKYH,≤ 0.25
9,VSWN,≤ 0.25
10,GWRY,≤ 0.25
11,DTAK,≤ 0.25
12,HKWP,≤ 0.25
13,MQDV,≤ 0.25
14,FDMP,≤ 0.25
15,EATM,≤ 0.25
16,LTET,≤ 0.25
17,HFHA,≤ 0.25
18,GVPD,≤ 0.25
19,NEHE,≤ 0.25
20,FSNG,≤ 0.25
21,MPHR,≤ 0.25
22,QPNH,≤ 0.25
23,GHYR,≤ 0.25
24,YWYI,≤ 0.25
25,PPGW,≤ 0.25

row,Variant,enrichment ratio
1,RHQF,≤ 0.25
2,VWQA,≤ 0.25
3,KLHI,≤ 0.25
4,DLPQ,≤ 0.25
5,TFKP,≤ 0.25
6,MAPC,≤ 0.25
7,ASCY,0.505
8,KTGM,≤ 0.25
9,EYDI,≤ 0.25
10,RKPW,≤ 0.25
11,VGFV,≤ 0.25
12,WSFP,≤ 0.25
13,ATFM,≤ 0.25
14,KVGS,≤ 0.25
15,MKFI,≤ 0.25
16,VDHS,≤ 0.25
17,GHDG,≤ 0.25
18,KPTL,≤ 0.25
19,WSVN,≤ 0.25
20,ILTE,≤ 0.25
21,CLGI,≤ 0.25
22,FWWQ,≤ 0.25
23,AHNQ,≤ 0.25
24,SATE,≤ 0.25
25,IDFK,≤ 0.25

row,Variant,enrichment ratio
1,TAWD,≤ 0.25
2,YSCR,≤ 0.25
3,GAEK,≤ 0.25
4,DQHT,≤ 0.25
5,VETS,≤ 0.25
6,NTPY,≤ 0.25
7,WNNH,≤ 0.25
8,YAIL,≤ 0.25
9,PSKI,≤ 0.25
10,WTIW,≤ 0.25
11,SGSV,12.1
12,RYWE,≤ 0.25
13,RTFD,≤ 0.25
14,KLSA,≤ 0.25
15,YPPD,≤ 0.25
16,EPWW,≤ 0.25
17,RVPA,≤ 0.25
18,GRFQ,≤ 0.25
19,DIRI,≤ 0.25
20,TGTT,11.2
21,MEWV,7.18
22,TPDW,≤ 0.25
23,LKTK,≤ 0.25
24,MDES,≤ 0.25
25,VFAV,≤ 0.25

row,Variant,enrichment ratio
1,VPSQ,≤ 0.25
2,HEDQ,≤ 0.25
3,LFEP,≤ 0.25
4,APCN,≤ 0.25
5,FHVG,≤ 0.25
6,GCVW,≤ 0.25
7,RQAY,≤ 0.25
8,IRKF,≤ 0.25
9,RIQG,≤ 0.25
10,WCRK,≤ 0.25
11,MAPQ,≤ 0.25
12,RYFD,≤ 0.25
13,QFGR,≤ 0.25
14,VNKW,≤ 0.25
15,KPNY,≤ 0.25
16,LVQG,≤ 0.25
17,KAIV,≤ 0.25
18,KLFI,≤ 0.25
19,ESTF,≤ 0.25
20,HGEL,≤ 0.25
21,RRRP,≤ 0.25
22,ACNI,≤ 0.25
23,WWWL,≤ 0.25
24,FFPA,≤ 0.25
25,HRGF,≤ 0.25

row,Variant,enrichment ratio
1,INVD,≤ 0.25
2,LTQI,≤ 0.25
3,AGCR,1.84
4,DEDI,≤ 0.25
5,RMTI,≤ 0.25
6,AMMI,15
7,VPNF,2.26
8,TLRD,≤ 0.25
9,LCGI,≤ 0.25
10,FTSL,≤ 0.25
11,MFQN,≤ 0.25
12,TTYL,11.1
13,HGGV,≤ 0.25
14,ELSP,≤ 0.25
15,WWNP,≤ 0.25
16,AGWN,≤ 0.25
17,MVWC,≤ 0.25
18,TLWQ,≤ 0.25
19,YAVY,≤ 0.25
20,IPQI,≤ 0.25
